Experimental findings from the supplement of paper PMC4604168 (melanoma cell lines) are described below.

The other results are listed elsewhere or left out. Many values rest on one well or one pass, so single values are uncertain.

Some test systems named below: WM1745; WM3526; WM3619; WM451Lu.
What all share (assay): cell count relative to DMSO control; melanoma cells; higher = more viable cells
What all share (conditions): library dose: low library concentration; 72 h
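Also: cell number obtained by counting DAPI-stained nuclei in high-throughput microscope images with image analysis software, screen run in 1,536-well plates.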

Take `N#Cc1c(O)c2c(-c3ccc(-c4ccccc4O)cc3)csc2[nH]c1=O` + CCN(CC)CCCCNc1ncc2cc(-c3cc(OC)cc(OC)c3)c(NC(=O)NC(C)(C)C)nc2n1 [PD173074] (first compound 2 µM, partner dose 0.1 µM): the cell count in the test with WM1745 was 99.5%; in the test on WM3526 it was 127%; in the test on WM3619, 109%; in the test on WM451Lu, 118%.
Turning to `c1cc(-c2cnn3cc(-c4ccc(OCCN5CCCCC5)cc4)cnc23)ccn1` [Dorsomorphin] + CCCCCCCCCCCC1=C(O)C(=O)C=C(O)C1=O [Embelin] (first compound 0.4 µM, partner dose 1.2 µM), the cell count is 88.7% in the test with WM1745, 112% with WM3526, 117% in the test with WM3619 and 100% in the test with WM451Lu.
As to `COC(=O)c1sccc1S(=O)(=O)Nc1ccc(Nc2ccccc2)cc1OC` + O=c1cc(-c2cccc3c2Sc2ccccc2S3)oc(N2CCOCC2)c1 [KU55933] (first compound 1 µM, partner dose 1 µM), the cell count worked out at 91.9% in the test on WM1745, 97.4% in the test on WM3526, 81.6% with WM3619 and 96.5% in the test on WM451Lu.
For `COc1ccc2c(c1)CCC1C2CCC2(C)C(NCCCCCCN3C(=O)C=CC3=O)CCC12` (stereo unspecified) + O=S(=O)(c1ccccc1)N(CC(F)(F)F)c1ccc(C(O)(C(F)(F)F)C(F)(F)F)cc1 [T0901317] (first compound 0.4 µM, partner dose 1.4 µM) the same measures were 65.9%, 99%, 63.2% and 111%.
Regarding `COc1cc(N2CCC(N3CCN(C)CC3)CC2)ccc1Nc1ncc(Cl)c(Nc2ccccc2S(=O)(=O)C(C)C)n1` + CC(C)CCN1c2nc(Nc3cc(F)c(O)c(F)c3)ncc2N(C)C(=O)C1C [BID1870] (first compound 0.08 µM, partner dose 0.2 µM), the cell count with WM1745 is 56.2%; in the test with WM3526, 78.2%; with WM3619, 87.8%; in the test on WM451Lu, 105%.
As to `COC(=O)c1sccc1S(=O)(=O)Nc1ccc(Nc2ccccc2)cc1OC` + O=S(=O)(c1ccccc1)N(CC(F)(F)F)c1ccc(C(O)(C(F)(F)F)C(F)(F)F)cc1 [T0901317] (first compound 1 µM, partner dose 1.4 µM), the cell count in the test on WM1745 came to 77.7%; with WM3526 it was 92.2%; in the test with WM3619 it was 116%; in the test on WM451Lu, 97.5%.
In the case of `CCN(CC)CCCCNc1ncc2cc(-c3cc(OC)cc(OC)c3)c(NC(=O)NC(C)(C)C)nc2n1` + COc1cc(N2CCC(N3CCN(C)CC3)CC2)ccc1Nc1ncc(Cl)c(Nc2ccccc2S(=O)(=O)C(C)C)n1 [NVP-TAE684] (first compound 0.1 µM, partner dose 0.08 µM), the cell count was determined as 88.1% in the test on WM1745, 93.6% in the test on WM3526, 120% in the test on WM3619 and 98.4% in the test with WM451Lu.
On to `Cc1cc([N+](=O)[O-])ccc1NS(=O)(=O)c1cc(Cl)ccc1Cl` + O=c1cc(-c2cccc3c2Sc2ccccc2S3)oc(N2CCOCC2)c1 [KU55933] (first compound 1 µM, partner dose 1 µM), for which the cell count is 82.3% in the test on WM1745, 91.9% in the test on WM3526, 102% in the test with WM3619 and 107% in the test with WM451Lu.
For `COc1ccc(-c2ccc3c(N4CCOCC4)nc(N4C[C@@H](C)O[C@@H](C)C4)nc3n2)cc1CO` + Oc1cc(-c2nc(-c3ccccc3)[nH]c2-c2ccncc2)ccc1Cl [L779450] (first compound 0.02 µM, partner dose 0.2 µM) the same measures were 95.5%, 78.8%, 76.6% and 143%.
`COc1ccc2c(c1)CCC1C2CCC2(C)C(NCCCCCCN3C(=O)C=CC3=O)CCC12` (stereo unspecified) + O=C1NC(=O)/C(=C/c2ccc(-c3ccc(F)cc3O)o2)S1 [AS252424] (first compound 0.4 µM, partner dose 1 µM): the cell count came to 78.5% with WM1745, 62.3% in the test with WM3526, 91.5% in the test with WM3619 and 97.9% in the test with WM451Lu.
As for `CCN(CC)CCCCNc1ncc2cc(-c3cc(OC)cc(OC)c3)c(NC(=O)NC(C)(C)C)nc2n1` + O=C(O)C(=O)Nc1sc2c(c1C(=O)O)CCNC2 [TCS401] (first compound 0.1 µM, partner dose 1.66667 µM), the cell count in the test on WM1745 amounted to 103%; in the test on WM3526, 92.6%; in the test on WM3619, 133%; with WM451Lu, 94.9%.
Regarding `O=S(=O)(c1ccccc1)N(CC(F)(F)F)c1ccc(C(O)(C(F)(F)F)C(F)(F)F)cc1` + COc1cc(N2CCC(N3CCN(C)CC3)CC2)ccc1Nc1ncc(Cl)c(Nc2ccccc2S(=O)(=O)C(C)C)n1 [NVP-TAE684] (first compound 1.4 µM, partner dose 0.08 µM), the cell count with WM1745 turned out to be 80.7%; in the test on WM3526, 78.5%; in the test on WM3619, 94.9%; in the test with WM451Lu it was 97.6%.
For `O=C1NC(=O)/C(=C/c2ccc(-c3ccc(F)cc3O)o2)S1` + Oc1nc(-c2ccc(C(F)(F)F)cc2)nc2c1CSCC2 [XAV939] (first compound 1 µM, partner dose 2 µM) the same measures were 88.5%, 86.7%, 94.3% and 92.9%.
As to `COc1ccc2c(c1)CCC1C2CCC2(C)C(NCCCCCCN3C(=O)C=CC3=O)CCC12` (stereo unspecified) + O=C(O)C(=O)Nc1sc2c(c1C(=O)O)CCNC2 [TCS401] (first compound 0.4 µM, partner dose 1.66667 µM), the cell count in the test on WM1745 was 80.7%; in the test with WM3526, 90.5%; in the test with WM3619, 70.6%; in the test with WM451Lu it was 95%.
Turning to `COc1ccc(COc2ccc(Cc3cnc(N)nc3N)cc2OC)cc1` + CC(C)CCN1c2nc(Nc3cc(F)c(O)c(F)c3)ncc2N(C)C(=O)C1C [BID1870] (first compound 1 µM, partner dose 0.2 µM), the cell count is 113% in the test on WM1745, 52.7% in the test on WM3526, 138% in the test on WM3619 and 117% in the test on WM451Lu.
For the compound `COC(=O)c1sccc1S(=O)(=O)Nc1ccc(Nc2ccccc2)cc1OC` + COc1cc(N2CCC(N3CCN(C)CC3)CC2)ccc1Nc1ncc(Cl)c(Nc2ccccc2S(=O)(=O)C(C)C)n1 [NVP-TAE684] (first compound 1 µM, partner dose 0.08 µM), the cell count was 85.3% in the test on WM1745, 104% in the test on WM3526, 114% in the test on WM3619 and 117% in the test on WM451Lu.
Consider `O=C1NC(=O)/C(=C/c2ccc(-c3ccc(F)cc3O)o2)S1` + c1cc(-c2cnn3cc(-c4ccc(OCCN5CCCCC5)cc4)cnc23)ccn1 [Dorsomorphin] (first compound 1 µM, partner dose 0.4 µM), for which the cell count amounted to 97.8% in the test with WM1745, 84.4% in the test with WM3526, 90.9% in the test on WM3619 and 145% in the test on WM451Lu.
As for `Cc1cc([N+](=O)[O-])ccc1NS(=O)(=O)c1cc(Cl)ccc1Cl` + Oc1nc(-c2ccc(C(F)(F)F)cc2)nc2c1CSCC2 [XAV939] (first compound 1 µM, partner dose 2 µM), the cell count in the test on WM1745 was 91.9%; in the test with WM3526 it was 103%; with WM3619 it was 113%; with WM451Lu, 111%.
Take `Oc1cc(-c2nc(-c3ccccc3)[nH]c2-c2ccncc2)ccc1Cl` + c1cc(-c2cnn3cc(-c4ccc(OCCN5CCCCC5)cc4)cnc23)ccn1 [Dorsomorphin] (first compound 0.2 µM, partner dose 0.4 µM): the cell count in the test on WM1745 came out at 87.3%; in the test with WM3526, 58.3%; with WM3619, 103%; in the test on WM451Lu it was 86.8%.
